Experimental data from PubChem BioAssay AID504339 (National Center for Advancing Translational Sciences (NCATS), 2011).
Among all 390,000 compounds or so, about 17,000 (4.4%) were called active. The shares of active, inactive and inconclusive entries below differ from those in the screen. Calls come from the whole dose curve; as a rule, active = well fitted inhibition curve with a large enough effect; inconclusive = small, poorly fitted or top-dose-only effect; inactive = no such curve, though single readings can be large or run the other way. Where the call is inconclusive, the potency comes from a doubtful curve fit.

molecular target: Lysine-specific demethylase 4A (Homo sapiens) (UniProt O75164); assay: qHTS Assay for Inhibitors of JMJD2A-Tudor Domain; conditions: AlphaScreen JMJD2A-Tudor / H3K4me3 peptide binding; activity change, negative = inhibition: at 114 µM (top of the series); note: nearly all actives have a fitted effect of over 50% in size
% is set by controls: 0 for no effect and ±100 for the full control effect; potency is the fitted concentration of half-maximal effect; tags give direction and shape of the fitted curve.

Sequence of UniProt O75164 (O75164 whole entry, looked up, the tested form may be a part): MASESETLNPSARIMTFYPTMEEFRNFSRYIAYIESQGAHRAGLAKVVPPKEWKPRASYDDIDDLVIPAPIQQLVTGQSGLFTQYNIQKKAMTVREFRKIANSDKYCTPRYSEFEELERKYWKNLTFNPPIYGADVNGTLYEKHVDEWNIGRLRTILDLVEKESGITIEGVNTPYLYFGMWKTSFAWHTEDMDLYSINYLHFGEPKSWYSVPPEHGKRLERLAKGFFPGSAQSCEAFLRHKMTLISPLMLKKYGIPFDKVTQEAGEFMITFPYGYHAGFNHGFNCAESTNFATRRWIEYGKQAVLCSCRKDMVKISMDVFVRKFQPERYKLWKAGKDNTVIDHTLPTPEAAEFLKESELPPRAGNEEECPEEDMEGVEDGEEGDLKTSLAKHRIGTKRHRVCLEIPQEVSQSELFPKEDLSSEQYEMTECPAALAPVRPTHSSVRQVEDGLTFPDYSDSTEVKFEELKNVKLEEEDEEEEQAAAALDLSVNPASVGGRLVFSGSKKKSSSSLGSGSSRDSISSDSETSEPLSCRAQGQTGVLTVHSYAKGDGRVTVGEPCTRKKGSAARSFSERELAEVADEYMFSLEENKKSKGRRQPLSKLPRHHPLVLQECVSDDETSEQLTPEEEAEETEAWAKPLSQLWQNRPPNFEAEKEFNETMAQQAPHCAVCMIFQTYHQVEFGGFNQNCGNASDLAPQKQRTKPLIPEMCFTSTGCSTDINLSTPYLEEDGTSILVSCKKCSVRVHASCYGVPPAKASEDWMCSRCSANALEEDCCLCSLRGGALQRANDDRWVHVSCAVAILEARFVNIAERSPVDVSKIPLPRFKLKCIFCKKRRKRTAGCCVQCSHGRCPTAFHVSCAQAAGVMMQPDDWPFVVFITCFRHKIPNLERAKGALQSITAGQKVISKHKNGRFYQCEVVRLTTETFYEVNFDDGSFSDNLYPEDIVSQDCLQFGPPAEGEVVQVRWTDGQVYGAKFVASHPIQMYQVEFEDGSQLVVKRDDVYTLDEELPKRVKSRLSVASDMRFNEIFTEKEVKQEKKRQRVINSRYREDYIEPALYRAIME

Structure (SMILES)	activity change, negative = inhibition	Potency
Cc1ccc(C(C)NC(=O)c2ccncc2)c(C)c1 (stereo unspecified)	inactive: -8.33%	–
COC(=O)Nc1ccc2c(c1)Nc1ccccc1CC2	–	inconclusive: 50.1 µM [inhibitor, partial curve]
CCN1CCc2c(C#N)c(NCc3ccccc3)nc(N(CC)CC)c2C1	–	inconclusive: 10 µM [inhibitor, partial curve]
CCOC(=O)c1[nH]c2ccc(C)cc2c1N	–	inconclusive: 56.2 µM [inhibitor, partial curve]
CN(C)c1ccc(C(=O)NCc2ccc3c(c2)CCN3C(=O)c2ccccc2)cc1	–	inconclusive: 50.1 µM [inhibitor, partial curve]
COc1ccccc1NC(=O)c1ccc(-c2ccccc2[N+](=O)[O-])o1	–	inconclusive: 25.1 µM [inhibitor, full curve]
CCOc1ccccc1C(=O)N[C@H](C(=O)Nc1nc2c(s1)CCCC2)C(C)C	–	inconclusive: 35.5 µM [inhibitor, partial curve]
CCOc1ccc(-c2nc(C#N)c(N3CCOCC3)o2)cc1	–	inconclusive: 44.7 µM [inhibitor, partial curve, poor fit]
O=C(N/C(=C/C=C/c1ccccc1)C(=O)N1CCCCC1)c1ccc([N+](=O)[O-])cc1	–	inconclusive: 44.7 µM [inhibitor, partial curve]
Cc1ccccc1-n1cc(-c2ccc(Br)cc2)nc1SCC(N)=O	–	inconclusive: 44.7 µM [inhibitor, partial curve]
Nc1[nH]n2c(=O)c3c(nc2c1N=Nc1ccccc1)CCCC3	–	inconclusive: 50.1 µM [inhibitor, partial curve]
CN(C)c1ccc(CNC(=O)c2sc3ncccc3c2-n2cccc2)cc1	–	active: 28.2 µM
CC(=O)C1=C(O)C(=O)N(c2cc(C(C)(C)C)on2)C1c1ccc(Br)cc1 (stereo unspecified)	–	inconclusive: 89.1 µM [inhibitor, single point]
CCNc1nc(NCC)nc(C(=O)OCCO)n1	–	active: 35.5 µM
COc1ccc(OC)c(NC(=O)COC(=O)c2cc3c(s2)CCC3)c1	–	active: 28.2 µM
COc1cccc(NC(=O)Cn2c(=O)n(Cc3ccco3)c(=O)c3cc(OC)c(OC)cc32)c1	inactive: -8.9%	–
N#CC1=C(N)Oc2cc(N)ccc2C1c1cccc(Br)c1 (stereo unspecified)	–	inconclusive: 56.2 µM [inhibitor, partial curve]
CCc1c(C)sc(NC(=O)c2cc(-c3ccc(O)cc3)on2)c1C#N	inactive: -5.63%	–
COc1ccc(CCNc2ncnc3c2oc2ccccc23)cc1OC	–	inconclusive: 89.1 µM [inhibitor, partial curve]
Cc1cc(NC(=O)CSc2nnnn2-c2cc(Cl)ccc2C)no1	inactive: -6.85%	–
Cc1ccc(NCc2cccn2-c2nnc(N3CCC(C(=O)NCc4ccc(F)cc4)CC3)s2)cc1	–	inconclusive: 20 µM [inhibitor, full curve, poor fit]
CC(CNCCCn1cnc2c(OCc3ccccc3)ncnc21)c1ccccc1 (stereo unspecified)	inactive: -26%	–
Cc1cc(C)cc(NC(=O)CN2CCC(C(=O)c3ccccc3)CC2)c1	inactive: -5.48%	–
COc1cc(OC)cc(-c2c(-c3cccs3)c3cc(-c4cc(OC)c(OC)c(OC)c4)ccc3n2C)c1	–	inconclusive: 7.94 µM [inhibitor, full curve, poor fit]

Structure (SMILES)	activity change, negative = inhibition	Potency
c1ccc2c(CN3CCSCC3)cccc2c1	–	active: 20 µM
Cn1c(=O)n(C)c2cc(N3CCCCC3)c(NC(=O)c3c(F)cccc3F)cc21	–	inconclusive: 3.98 µM [inhibitor, full curve, poor fit]
COc1ccc(S(=O)(=O)CCC(=O)NC2CCCCC2)cc1	inactive: -7.53% [at 11.4 µM]	–
CCN(CCNC(=O)CN(C)S(=O)(=O)c1cccc2nsnc12)c1ccccc1	–	inconclusive: 63.1 µM [inhibitor, partial curve]
O=C(O)/C(=C\c1ccc(-c2ccc(F)cc2)o1)c1ccccc1	–	inconclusive: 79.4 µM [inhibitor, partial curve]
O=C(COC(=O)[C@H](Cc1c[nH]c2ccccc12)NC(=O)c1cccs1)NCc1ccccc1	–	inconclusive: 56.2 µM [inhibitor, partial curve]
Cc1cc[n+]2c3c(cccc13)CCC2	–	inconclusive: 17.8 µM [inhibitor, full curve]
CCOC(=O)c1cc(-c2ccccc2)n(CCC(=O)NCCc2ccc(OC)c(OC)c2)c1C	–	inconclusive: 56.2 µM [inhibitor, single point]
O=C(CN(C(=O)c1ccccc1Cl)C1CCCCC1)Nc1ccc(Cl)c([N+](=O)[O-])c1	–	inconclusive: 63.1 µM [inhibitor, partial curve, poor fit]
Cn1cc(C(=O)c2ccc(Cl)cc2Cl)cc1C(=O)N/N=C(\N)COc1ccc(Cl)cc1	–	inconclusive: 50.1 µM [inhibitor, partial curve]
Cc1cc(O)c(C(=O)/C=C/c2cccc([N+](=O)[O-])c2)c(=O)o1	–	inconclusive: 89.1 µM [inhibitor, single point]
Cc1cccc(NC(=O)c2c(N)sc3c2CCC(C)C3)c1 (stereo unspecified)	inactive: -27%	–
C[N+]1=C(/C=C/Nc2ccccc2Cl)C(C)(C)c2ccccc21	–	inconclusive: 39.8 µM [inhibitor, single point]
CCCn1c(/C=C/c2cc[n+](C)cc2)nc2ccccc21	–	inconclusive: 39.8 µM [inhibitor, single point]
Cc1ccccc1Nc1c(-c2ccc(N3CCOCC3)cc2)nc2ccc(Cl)cn12	–	inconclusive: 7.94 µM [inhibitor, full curve]
CC[C@H](C)Cc1cn([C@@H](CCCCN)C(=O)NCCCCCCCCCCC(=O)N2CCNCC2)nn1	inactive: -23.2%	–
Cc1ccc(Nc2nc(N)nc(CN3CCc4ccccc4C3)n2)cc1	–	inconclusive: 100 µM [inhibitor, partial curve, poor fit]
COc1ccc(N=c2scc(-c3ccc(OC)cc3)n2CCO)cc1	–	inconclusive: 56.2 µM [inhibitor, partial curve, poor fit]
Cc1ccc(/C=N/c2sc3c(c2C(N)=O)CCCC3)o1	–	inconclusive: 50.1 µM [inhibitor, partial curve]
CCOc1cc(C2Nc3cccc4cccc(c34)N2)ccc1O	inactive: -33.1%	–
C1CCCCCC(NCCN2CCNCC2)CCCCC1	inactive: -9.38%	–
COC(=O)[C@H]1[C@H]2C[C@H]3c4[nH]c5ccccc5c4CCN3C[C@@H]2CC[C@@H]1O	–	inconclusive: 79.4 µM [inhibitor, partial curve]
O=C(N/N=C/c1ccccn1)c1sc2ccccc2c1Cl	–	inconclusive: 63.1 µM [inhibitor, partial curve]
N#CC1=C(N)OC2=C(C(=O)CCC2)C1CCc1ccccc1 (stereo unspecified)	–	inconclusive: 39.8 µM [inhibitor, single point]

Structure (SMILES)	activity change, negative = inhibition	Potency
CCOC(=O)c1sc2cc([N+](=O)[O-])cc(SCC(C)C)c2c1N	–	active: 39.8 µM
Cc1cc(N)ccc1N=Nc1c(C)n(C)n(-c2ccccc2)c1=O	–	inconclusive: 100 µM [inhibitor, single point]
COC(Cc1n[nH]c(=S)n1-c1ccc(Cl)cc1)OC	–	active: 14.1 µM
Cc1cccc(C(=O)NC(CC(=O)O)c2ccc(OC3CCCC3)cc2)c1[N+](=O)[O-] (stereo unspecified)	–	inconclusive: 56.2 µM [inhibitor, partial curve]
CCCC(=O)Nc1ccc(C(=O)NCc2ccccc2Cl)cc1	inactive: -16.5%	–
CCC(=O)Nc1nnc(CCc2ccccc2)s1	inactive: -4.89%	–
C=C(C)CSC1=C(C#N)C(c2ccccc2Cl)CC(=O)N1 (stereo unspecified)	–	inconclusive: 89.1 µM [inhibitor, single point]
CCN(CC)c1ccc(/C=C2\C(=O)N(c3nnc(C)c(=O)[nH]3)N=C2C)cc1	–	active: 20 µM
O=C(Cn1nc(CNc2ccc(Cl)cc2)[n+]2c1CCCCC2)c1ccc(Cl)cc1	–	active: 44.7 µM
COC(=O)c1c(C(=O)OC)c2ccccn2c1C(=O)c1ccc([N+](=O)[O-])cc1	–	inconclusive: 44.7 µM [inhibitor, partial curve]
O=C(COC(=O)c1cccc(Br)c1)NCc1ccco1	–	active: 17.8 µM
O=C1[C@H](Cc2ccccc2)NCC=CC[C@@H](c2ccc(Cl)cc2)N1Cc1ccc(Cl)cc1	–	inconclusive: 44.7 µM [inhibitor, partial curve]
O=C(NNc1cccc(Cl)n1)c1c(Cl)cccc1Cl	inactive: 12.6%	–
O=C(Cn1nc(C(F)F)cc1C(F)F)NNC(=S)Nc1ccc([N+](=O)[O-])cc1	–	inconclusive: 79.4 µM [inhibitor, partial curve]
Cc1ccc(NC(=O)CSc2nnc(-c3ccccn3)n2C)cc1	–	inconclusive: 89.1 µM [inhibitor, single point]
CCOc1cc(S(=O)(=O)NCc2ccc3c(c2)OCO3)c(C)cc1C	–	inconclusive: 79.4 µM [inhibitor, single point]
CCOc1ccc(/C=N/N2C(C)CCCC2C)cc1OC (stereo unspecified)	inactive: -16.7%	–
CC(=O)C1=NN(c2ccccc2)C(c2ccc3c(c2)OCO3)N1c1ccc(N2CCOCC2)cc1 (stereo unspecified)	–	inconclusive: 12.6 µM [inhibitor, full curve]
O=C(CSc1ccc2nnc(-c3ccc(F)cc3)n2n1)NCC1CCCO1 (stereo unspecified)	inactive: -29.9%	–
CN(CCOc1cccc(C(F)(F)F)c1)Cc1ccccc1	inconclusive: -100% [inhibitor]	–
O=C(O)c1cccc(-n2c(-c3cnccn3)n[nH]c2=S)c1	inactive: -15.8%	–
Cc1c(Cl)cccc1NC(=O)c1ncn(-c2ccccc2)n1	inactive: -11%	–
CO/N=C/c1ccc(N2CCN(C(=O)c3ccc(F)cc3)CC2)c([N+](=O)[O-])c1	–	inconclusive: 31.6 µM [inhibitor, full curve]
